About 14,000 (4.5%) of roughly 310,000 compounds showed an effect of 50% or more. The effect is printed as a negative number. The list shows a part of the results.
Each compound was assayed against human ether-à-go-go-related gene (hERG) potassium channel (human, UniProt Q12809) (assay: primary screen, population patch clamp on CHO cells stably expressing hERG).
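Note: peak tail current of the secondary pulse compared with the same well before compound.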

Sequence of human ether-à-go-go-related gene (hERG) potassium channel (Q12809 whole entry, looked up): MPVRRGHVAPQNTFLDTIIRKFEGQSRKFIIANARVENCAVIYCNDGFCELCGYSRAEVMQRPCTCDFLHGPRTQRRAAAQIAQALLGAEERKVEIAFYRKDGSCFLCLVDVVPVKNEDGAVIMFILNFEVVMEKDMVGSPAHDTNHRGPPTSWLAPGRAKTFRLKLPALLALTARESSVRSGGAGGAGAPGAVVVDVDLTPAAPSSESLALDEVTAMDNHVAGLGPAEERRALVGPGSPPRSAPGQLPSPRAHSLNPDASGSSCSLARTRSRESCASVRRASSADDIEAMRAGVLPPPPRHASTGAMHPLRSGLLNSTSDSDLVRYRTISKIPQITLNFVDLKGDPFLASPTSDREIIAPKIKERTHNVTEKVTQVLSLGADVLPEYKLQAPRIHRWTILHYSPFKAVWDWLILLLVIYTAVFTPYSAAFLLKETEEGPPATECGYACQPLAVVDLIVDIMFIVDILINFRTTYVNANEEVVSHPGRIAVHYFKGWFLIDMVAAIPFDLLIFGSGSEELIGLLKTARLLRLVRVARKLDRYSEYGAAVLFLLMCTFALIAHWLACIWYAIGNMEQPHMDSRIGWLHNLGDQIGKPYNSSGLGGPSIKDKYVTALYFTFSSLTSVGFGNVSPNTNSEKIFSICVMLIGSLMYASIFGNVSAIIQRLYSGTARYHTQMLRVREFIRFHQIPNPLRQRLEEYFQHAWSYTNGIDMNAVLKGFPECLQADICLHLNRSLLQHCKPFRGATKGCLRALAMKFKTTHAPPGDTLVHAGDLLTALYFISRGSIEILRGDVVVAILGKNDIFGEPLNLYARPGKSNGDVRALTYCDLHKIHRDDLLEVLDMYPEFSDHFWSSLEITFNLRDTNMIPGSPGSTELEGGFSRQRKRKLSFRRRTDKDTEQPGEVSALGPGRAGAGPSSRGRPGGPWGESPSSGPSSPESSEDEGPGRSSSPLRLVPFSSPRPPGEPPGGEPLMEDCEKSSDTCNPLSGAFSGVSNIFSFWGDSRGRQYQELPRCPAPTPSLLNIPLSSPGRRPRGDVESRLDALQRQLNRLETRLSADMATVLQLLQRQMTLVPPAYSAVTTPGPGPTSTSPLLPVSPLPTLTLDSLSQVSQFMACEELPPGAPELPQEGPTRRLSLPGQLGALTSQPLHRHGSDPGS

Compound | hERG current change (%, negative = inhibition) at 10uM [%]
O=C(O)c1ccc([N+](=O)[O-])c(CS(=O)(=O)c2ccc(Cl)cc2)c1 | 6.82
COc1ccc(-c2c(C)n([O-])c3c([n+]2=O)CCCC3)c(OC)c1 | 6.26
O=C(O)c1ccc(Cl)c(S(=O)(=O)NCC2CCCO2)c1 (centres unmarked) | 6.15
COc1ccc(NC(=S)N2CCN(C(=O)C3CCCO3)CC2)c(OC)c1 (centres unmarked) | 14.1
O=C1OCCC1Sc1nnc(-c2ccc3c(c2)OCO3)n1-c1ccccc1 (centres unmarked) | -3.33
CCCCCn1nc(-c2ccccc2)c2nc3ccccc3nc21 | 8.24
COc1cc(/C=N/NC(=O)C(=O)/C=C2\NC3(CCCC3)Cc3ccccc32)ccc1O | 15.9
COc1ccccc1N=C1SCC(=O)N1c1ccccc1OC | 17.7
CC(CCc1ccccc1)NC(=O)COC(=O)c1ccc([N+](=O)[O-])cc1 (centres unmarked) | -22.1
CCC(C)NC(=O)CSc1nc2ccccc2c(=O)n1CCCN1CCCCC1 (centres unmarked) | -13.8
Nc1nc(CSc2ccc(Cl)cc2)nc(N2CCCCC2)n1 | -6.41
CCN(C(=O)CCCCC(=O)N(CC)c1ccccc1)c1ccccc1 | 2.5
COc1ccc(OCCC(=O)NCC23CC4CC(CC(C4)C2)C3)cc1 | -2.52
CC(C)Cc1ccc(S(=O)(=O)N2CCN(C(=O)c3ccco3)CC2)cc1 | -11.1
Cc1ccc(S(=O)(=O)N(C)C)cc1NC(=O)Nc1ccccc1 | 5.83
COCCCNC(=O)Cn1cc(C(=O)c2cccs2)c2ccccc21 | -12
CCOC(=O)c1c(NC(=O)/C=C/C(=O)O)sc(C)c1-c1ccc(F)cc1 | 23.5
COc1ccc(CCC(=O)N2CCN(S(=O)(=O)c3ccc(OC(F)(F)F)cc3)CC2)cc1 | -39.9
CCNC(=O)NC(=O)C(C)OC(=O)c1ccc(-n2nc(SC)sc2=S)cc1 (centres unmarked) | -10.8

Compound | hERG current change (%, negative = inhibition) at 10uM [%]
CCOC(=O)CSc1nnc(CNc2ccccc2Cl)n1-c1ccccc1 | -7.91
O=C(NNc1ccc(Cl)cc1)c1c(F)cccc1Cl | 13.7
O=C(CSc1nnc(-c2cccnc2)n1Cc1ccco1)Nc1nc(-c2ccc(F)cc2)cs1 | -70.6
O=C1C=C(c2ccc3[nH]ccc3c2)C[C@@H](c2ccc(F)cc2)C1 | 2.56
CC(=O)Nc1nnc(S(=O)(=O)N2CCN(c3ccc([N+](=O)[O-])cc3Cl)CC2)s1 | -4.29
CC(=O)Nc1ccc(NC(=O)c2ccc(CN3CCc4ccccc4C3)cc2)cc1 | 13.6
CCOc1ccc(C(=O)NC(=S)Nc2ccc(NC(=O)c3ccco3)c(C)c2)cc1[N+](=O)[O-] | 23.1
CN1CCN(/C=N/c2sc3c(c2C#N)CCCCC3)CC1 | -12.1
Cc1ccc(C(=O)NC2CCS(=O)(=O)C2)cc1S(=O)(=O)N1CCCC1 (centres unmarked) | -14.2
Cc1nc2ccccc2c(=O)n1NC(=O)c1c(F)cccc1F | -2.18
CCN(c1ccccc1)S(=O)(=O)c1ccc(N)c(OC)c1 | -5.62
CCC(Oc1ccc(F)cc1)C(=O)N1CCCCCCC1 (centres unmarked) | 5.11
CCOC(=O)c1oc2c(c1C)/C(=N/O)CCC2 | 13.4
Nc1nonc1-n1nnc(C(=O)N/N=C/c2ccccc2Cl)c1COc1ccc(F)cc1 | 2.38
COc1ccc(CCNC(=S)N2CCC(C(=O)c3ccc(F)cc3)CC2)cc1OC | -19.2
COc1ccc(Cn2c(O)c(C=Nc3ccccc3)c3ccccc3c2=O)cc1 | 11.4
Oc1c(Br)cc(Br)cc1C=Nc1ccc2[nH]ncc2c1 | 2.67
O=C(CN(Cc1ccco1)C(=O)CNS(=O)(=O)c1ccc(Cl)cc1)NCC1CCCO1 (centres unmarked) | -6.32
CC1CN(CCCCOc2ccc(Cl)c3ccccc23)CC(C)O1.O=C(O)C(=O)O (centres unmarked) | 21.3

Compound | hERG current change (%, negative = inhibition) at 10uM [%]
Cc1cc(C)n(CCn2nc(C)cc2C)n1 | 4.43
CCCOc1ccc(Cn2c(=O)oc3ccc(C)cc32)cc1 | -3.82
CCOC(=O)C1CCN(C(=O)CCNC(=O)Cn2ccc3ccccc3c2=O)CC1 | -1.95
O=C(c1ccc2oc(Cc3ccc(Cl)cc3)nc2c1)N1CC[C@H](O)C1 | 4.21
Cc1sc2ncnc(OCC(=O)N3CCN(S(=O)(=O)c4ccccc4)CC3)c2c1C | -2.31
Cc1c(Cl)cccc1NC(=O)CC(Cc1ccccc1)C(=O)O (centres unmarked) | 22.6
NC(=O)C1c2ccccc2Oc2ccccc21 | 13.7
Cc1nc2scc(-c3ccccc3)c2c(=O)n1N | -1.43
Cc1ccccc1N1CCN(C(=O)c2ccccc2NC(=O)/C=C\C(=O)O)CC1 | 14.3
C#CCN(CC=C)C(=O)c1ccc2nc(C3CCCCC3)oc2c1 | -9.98
O=C(NNC(=S)Nc1ccc(Br)cc1)c1ccccc1Br | 18.5
Cc1cc(=O)cc(C)n1-c1ccccc1Br | 15.8
CC(C)Cn1c(N2CCN(C(=O)c3cccs3)CC2)nc2ccccc21 | -73.6
COc1cccc(CNC(=O)COC(=O)CN(C)S(=O)(=O)c2ccc(NC(C)=O)cc2)c1 | 5.95
Cc1cc(C)c2c(N)c(C(=O)N3CCc4ccccc4C3)sc2n1 | -17.6
Cn1c(=O)c2cc(S(=O)(=O)NC(Cc3ccccc3)C(=O)NCC3CCCO3)ccc2n(C)c1=O (centres unmarked) | 23.7
Cc1nnc(SCC(=O)N2CCN(c3ccccc3)CC2)n1-c1ccccc1 | -16.9
O=C1C=CN(C(=O)Oc2ccccc2)CC1 | 10.3

— publication PMC4336329 (PLoS ONE, 2015)
